Among all 310,000 compounds or so, about 2,200 (0.71%) showed an effect of 50% or more. The effect is printed as a negative number. The list shows a part of the results.
Molecular target: human ether-à-go-go-related gene (hERG) potassium channel (human, UniProt Q12809)
Test: primary screen, population patch clamp on CHO cells stably expressing hERG

human ether-à-go-go-related gene (hERG) potassium channel, sequence (Q12809 whole entry, looked up): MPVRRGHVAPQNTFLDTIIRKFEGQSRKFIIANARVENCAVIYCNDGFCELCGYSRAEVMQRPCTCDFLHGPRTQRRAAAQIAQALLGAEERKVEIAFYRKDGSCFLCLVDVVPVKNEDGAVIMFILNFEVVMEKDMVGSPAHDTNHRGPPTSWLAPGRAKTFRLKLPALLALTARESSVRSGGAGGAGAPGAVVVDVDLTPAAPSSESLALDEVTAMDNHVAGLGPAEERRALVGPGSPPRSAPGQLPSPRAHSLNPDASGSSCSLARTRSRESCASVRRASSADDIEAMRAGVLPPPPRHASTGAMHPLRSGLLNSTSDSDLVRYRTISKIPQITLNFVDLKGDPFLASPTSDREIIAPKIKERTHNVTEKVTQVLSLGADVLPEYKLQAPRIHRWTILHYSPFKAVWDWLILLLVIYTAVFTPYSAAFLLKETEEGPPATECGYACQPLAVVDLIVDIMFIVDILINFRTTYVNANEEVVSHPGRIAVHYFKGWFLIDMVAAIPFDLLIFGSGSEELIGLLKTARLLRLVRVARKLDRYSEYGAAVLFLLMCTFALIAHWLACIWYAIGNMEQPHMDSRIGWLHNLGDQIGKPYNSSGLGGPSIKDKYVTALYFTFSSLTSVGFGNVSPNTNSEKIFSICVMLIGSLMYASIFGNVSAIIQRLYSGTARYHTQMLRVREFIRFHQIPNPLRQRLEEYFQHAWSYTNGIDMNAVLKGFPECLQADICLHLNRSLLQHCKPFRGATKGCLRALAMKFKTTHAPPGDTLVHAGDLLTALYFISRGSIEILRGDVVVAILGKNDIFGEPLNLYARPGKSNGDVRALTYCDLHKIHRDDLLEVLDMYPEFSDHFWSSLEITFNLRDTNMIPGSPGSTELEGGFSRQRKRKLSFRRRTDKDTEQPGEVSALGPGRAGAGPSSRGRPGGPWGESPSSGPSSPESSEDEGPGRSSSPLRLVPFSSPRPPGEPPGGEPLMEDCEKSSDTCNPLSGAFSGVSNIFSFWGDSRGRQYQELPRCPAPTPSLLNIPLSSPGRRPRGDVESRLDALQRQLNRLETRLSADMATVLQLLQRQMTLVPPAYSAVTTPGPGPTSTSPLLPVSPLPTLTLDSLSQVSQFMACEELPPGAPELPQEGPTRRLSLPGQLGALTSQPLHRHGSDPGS

Compared with `COc1cc(NC(=O)c2ccc(F)cc2)c(OC)cc1NC(=O)CN1CCCCC1.Cl`, `COc1cc(NS(C)(=O)=O)c(OC)cc1NC(=O)c1ccccc1` is higher in “hERG current change (%, negative = inhibition) at 1uM” value: -0.575% for the first, 1.48% for the second.

Going from `CC(=O)NC(NC(=S)Nc1cccc(Br)c1)C(Cl)(Cl)Cl` (stereo not shown) to `COc1cccc(NC(=O)NCCCCc2ccccc2)c1`, the “hERG current change (%, negative = inhibition) at 1uM” value rises from -6.09% to -0.169%.

Compared with `O=C1CC(N2CCN(c3ccccc3)CC2)C(=O)N1c1cccc(Br)c1` (stereo not shown), `O=C(NCCCn1ccnc1)C(=O)NCC(c1ccco1)N1CCN(c2ccccc2)CC1` (stereo not shown) is lower in “hERG current change (%, negative = inhibition) at 1uM” value: 16.3% for the first, 9.14% for the second.

Compared with `COc1cc(NC(=O)CSc2nc(C)c(C)c(C)n2)c(C)cc1[N+](=O)[O-]`, `Cc1cc(C)cc(NC(=O)CSc2nnc(-c3ccccc3)n2N)c1` is lower in “hERG current change (%, negative = inhibition) at 1uM” value: 12.3% for the first, 8.93% for the second.

First: CCc1ccc(NC(=S)N2CCCCCCC2)cc1
Second: CN(C)C(=O)c1ccc(NC(=O)CC2SC(N3CCCC3)=NC2=O)cc1 (stereo not shown)
The “hERG current change (%, negative = inhibition) at 1uM” value of the first is lower: 9.19% for the first, 17.8% for the second.

Going from `N#CC(c1ccc(=O)[nH]n1)c1ccc(Cl)cc1Cl` (stereo not shown) to `CC(C)(C)c1nnc(NS(=O)(=O)c2cc(Cl)ccc2Cl)s1`, the “hERG current change (%, negative = inhibition) at 1uM” value rises from 4.89% to 6.89%.

First: O=C(c1ccc2c(c1)C(=O)N(CCCO)C2=O)c1ccc2c(c1)C(=O)N(CCCO)C2=O
Second: Cn1c(N)c(C(=O)COC(=O)CCCc2nc3ccccc3s2)c(=O)n(C)c1=O
The “hERG current change (%, negative = inhibition) at 1uM” value of the first is lower: 9.23% for the first, 35.9% for the second.

Compared with `CSc1nc(C)cc(SCC(=O)N/N=C/c2ccccc2)n1`, `CC1(C)Cc2nc(-c3ccccc3)nc(SCC(=O)N3CCOCC3)c2CO1` is higher in “hERG current change (%, negative = inhibition) at 1uM” value: 1.49% for the first, 8.06% for the second.

Going from `Cc1cccc(C)c1NC(=O)C[N+](C)(C)CC(O)COc1cccc2ccccc12.[Cl-]` (stereo not shown) to `COc1ccc(NC(=O)c2cccc(Oc3ccccc3)c2)cn1`, the “hERG current change (%, negative = inhibition) at 1uM” value rises from 0.617% to 20%.

Compared with `CCOc1ccc(NC(=O)Cn2nnc(-c3ccccc3NC(=O)c3cccs3)n2)cc1`, `CC(C)(Oc1ccc(Cl)cc1)C(=O)Nc1ccc(S(=O)(=O)Nc2ncccn2)cc1` is higher in “hERG current change (%, negative = inhibition) at 1uM” value: -0.716% for the first, 2.98% for the second.

Going from `Cc1cc(/C=C(\C#N)C(=O)OCC#N)c(C)n1CC(C)C` to `Cc1cc2cc(C=C(C#N)C#N)c(Cl)nc2cc1C`, the “hERG current change (%, negative = inhibition) at 1uM” value falls from 11.7% to 3.01%.

Compared with `CCOC(=O)Cc1csc2nc3sc(C)c(C)c3c(=O)n12`, `CCOC(=O)c1c(NC(=O)c2ccnn2C)sc(C)c1C` is higher in “hERG current change (%, negative = inhibition) at 1uM” value: 5.5% for the first, 18.3% for the second.

First: O=C(Nc1cccc2ncccc12)c1ccc2c(c1)OCCO2
Second: Cc1ccc(SC2CC(=O)N(c3ccc4c(c3)OCCO4)C2=O)cc1 (stereo not shown)
The “hERG current change (%, negative = inhibition) at 1uM” value of the first is lower: 7.61% for the first, 17.1% for the second.

First: COc1ccc(OC)c(CCNC(=O)c2ccc(CS(=O)Cc3ccc(Cl)cc3)o2)c1 (stereo not shown)
Second: CCOc1ccc(CCNC(=O)c2[nH]c(C)c(C(C)=O)c2CC)cc1OCC
The “hERG current change (%, negative = inhibition) at 1uM” value of the first is lower: -9.85% for the first, 8.48% for the second.

Going from `Cc1nn(C(=O)c2cccnc2)c(C)c1C` to `COc1ccc(C(=O)c2cnc[nH]2)cc1OC`, the “hERG current change (%, negative = inhibition) at 1uM” value rises from 2.6% to 6.7%.

First: CC(=O)c1ccc(N(C(=O)c2csnn2)C(C(=O)NC(C)(C)C)c2cccs2)cc1 (stereo not shown)
Second: CCOc1ccc(C(C)=O)cc1COC(=O)C(C)N=C1NS(=O)(=O)c2ccccc21 (stereo not shown)
The “hERG current change (%, negative = inhibition) at 1uM” value of the first is lower: -15% for the first, 12.9% for the second.

Compared with `Cc1cc(NC(=O)CN(C)CC(=O)Nc2ccc(F)c(F)c2F)no1`, `Cc1ccc(-n2c(=O)c3sccc3n(CC(=O)NCC3CCCO3)c2=O)cc1F` (stereo not shown) is higher in “hERG current change (%, negative = inhibition) at 1uM” value: 0.344% for the first, 1.95% for the second.

Compared with `Cn1cnnc1SCc1nc(N)nc(Nc2ccccc2)n1`, `COCCn1c(-c2ccco2)nc2nc3ccccc3nc21` is lower in “hERG current change (%, negative = inhibition) at 1uM” value: 13.7% for the first, 7.49% for the second.

Compared with `COC(=O)c1cc(OC)c(OC)cc1NC(=O)c1ccc(OC)c(OC)c1`, `COc1ccc(NC(=O)COC(=O)CCNS(=O)(=O)c2ccccc2)cc1OC` is lower in “hERG current change (%, negative = inhibition) at 1uM” value: 5.71% for the first, 4.81% for the second.

Compared with `CN(C)S(=O)(=O)N1CCN(Cc2ccccc2)CC1`, `CCC1Nc2ncnc(N3CCOCC3)c2N(Cc2ccccc2)C1=O.O=C(O)C(F)(F)F` (stereo not shown) is higher in “hERG current change (%, negative = inhibition) at 1uM” value: -2.04% for the first, 13.8% for the second.

Compared with `CCCc1nnc(SCC(=O)N2CCCCC2C)n1CCCOC` (stereo not shown), `COCCN1C(=O)c2ccccc2C(C(=O)NCCCN2CCCC2)C1c1c[nH]c2ccccc12` (stereo not shown) is higher in “hERG current change (%, negative = inhibition) at 1uM” value: 2.44% for the first, 2.87% for the second.

Compared with `CCN1CCN(c2nc(N)c([N+](=O)[O-])c(Nc3ccc(C)cc3)n2)CC1`, `Cc1ccc(-n2nc(C(=O)O)c(O)cc2=O)cc1` is higher in “hERG current change (%, negative = inhibition) at 1uM” value: -7.72% for the first, 12.3% for the second.

First: COC(=O)C1=C(Nc2ccccc2NC(=O)CCCC(=O)O)CSC1
Second: CCOc1ccccc1C(=O)NCCCCNC(=O)c1ccccc1OCC
The “hERG current change (%, negative = inhibition) at 1uM” value of the first is higher: 9.32% for the first, 0.0163% for the second.

Going from `COc1ccc(-n2c(=O)c3c4c(sc3n(Cc3cccc(F)c3)c2=O)CN(C(C)=O)CC4)c(OC)c1` to `CCN(CC)S(=O)(=O)c1ccc(OC)c(NC(=O)c2cc(=O)[nH]c3ccccc23)c1`, the “hERG current change (%, negative = inhibition) at 1uM” value rises from 1.25% to 9.13%.

Compared with `CC(OC(=O)C1CCC1)C(=O)Nc1cc(Cl)cc(Cl)c1` (stereo not shown), `C=CCn1c(=O)c(C(=O)NCCN(CC)CC)c(O)c2ccccc21.Cl` is lower in “hERG current change (%, negative = inhibition) at 1uM” value: 8.36% for the first, 0.578% for the second.

Compared with `O=C(Oc1cc(=O)n2ccccc2n1)c1ccccc1`, `O=C(O)/C=C/c1cn(-c2ccccc2)nc1-c1ccccc1` is lower in “hERG current change (%, negative = inhibition) at 1uM” value: 15.4% for the first, 7.32% for the second.

First: Cc1cccn2cc(-c3cccc(S(=O)(=O)N4CCOCC4)c3)nc12
Second: NC(Cc1c[nH]c2ccccc12)C(=O)NCc1ccccc1 (stereo not shown)
The “hERG current change (%, negative = inhibition) at 1uM” value of the first is lower: 3.06% for the first, 17.6% for the second.

First: Cc1nnc(SCC(=O)Nc2sccc2C#N)s1
Second: O=C(COC(=O)c1ccc([N+](=O)[O-])s1)NCc1ccc(F)cc1
The “hERG current change (%, negative = inhibition) at 1uM” value of the first is lower: 7.34% for the first, 23.6% for the second.

Compared with `CCOc1cc(-c2ccc(N)c(OCC)c2)ccc1N`, `C=C(Br)Cn1c(CCCC)nc2ccccc21` is lower in “hERG current change (%, negative = inhibition) at 1uM” value: -0.223% for the first, -6.89% for the second.

Reference: paper PMC4336329 (PLoS ONE, 2015)
